Test results published in the supplement of paper PMC10126150.
Sequences with one replicate were seen in a single cluster, so their values are uncertain.

System: ATP
Experiment: switch fluorescence ratio, 500 uM ATP over buffer (Cy3 cluster intensity, sum of 5 cycles each) (fold (ratio)); higher = stronger signal-on switching upon ATP binding; sequences stand for … in TCGTCGGCAGCGTCAGATGTGTATAAGAGACAGTTTTTTTTTTTTTTTTTTTTTTTTT…TC
Details: aptamer strand: ATP DNA aptamer (quencher-CACCTGGGGGAGTATTGCGGAGGAAGG + anchor), 100 nM annealed; ATP concentration: 500 uM; one replicate
In short: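 Imaging in selection buffer was followed by imaging after 15 min with 500 uM ATP at 22 °C, for Cy3-labelled switching-strand clusters annealed to 100 nM quencher-labelled ATP aptamer on a modified Illumina MiSeq flow-cell. Five of these buffer/ATP cycles ran, separated by NaOH stripping and re-annealing. The fluorescence ratio per cluster is summed target-cycle over summed buffer-cycle Cy3 intensity, averaged per switch-domain sequence; clusters outside 100-1000 RFU were removed.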
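Also: ATP exposure 15 min at 22 °C before imaging.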

Sequence	switch fluorescence ratio
CGGATTGACT	1.01
CCCATTAAAC	1.09
GTGGGGGAGG	0.963
CCATGCATGT	0.947
TAGCGCGTGC	0.962
TGGAGTATAG	1.04
TACTACTC	1.08
ACCCAGCTAC	2.75
TGGAACCTCT	0.987
CTACCGCTCC	2.85
TTCTGTCGGG	0.971
CGTAAACAGC	0.981
GACGAGTGAC	1.13
AACGTACCTC	1.39
GAATGTCCTA	1.01
TCGGGGAAT	0.994
CGGGTGAAG	1
GGCCGCGCGG	1.02
TACATAAGG	1.01
CGTGTGAGCG	1.02
CAGTTTTCAC	0.976
ACACAGCATT	1.2
TAACAAAGGA	1.01
CACGCTCGA	1.04
GGGCCCAAGT	1.01
GGGCCCCCAT	0.983

Sequence	switch fluorescence ratio
GTGGCTATGT	1.02
TACTAGACG	1.14
TTCGCAGAAA	1.04
CCGTCGTATG	1.02
CCACTGTGCT	1.13
CCCTTGAATC	1
GAATATGTAT	0.988
CTGTTTCTG	1.02
ACGTTTGGCC	0.988
TGCCGAAACT	1.03
TGCATCATAG	1.06
GATGTACCAG	0.999
GGAGGAGCAA	2.27
CTACCGTGAC	1.93
GCCCCATGCT	1.03
CACGTCGGTC	1.05
CCCGTAACTC	2.54
TTCCGAGTCT	1.12
AAATAAAGGC	1.01
CGTTCAGTAT	1.01
GCTTCCCCCA	1.91
CGGCATGTGT	0.993
CCAAGCGTT	1.14
GGTCAGAGT	0.976
AGAACTGGAC	1.13
AACGAGCCCG	0.989

Sequence	switch fluorescence ratio
AAATAAGAAT	1.01
TCGTAACTCA	1.01
GACAGGGAGC	0.975
ATAGGCTCTA	1.01
AGGCGAGATG	1.01
TCAATGATG	0.994
AAAAAGAGCT	1
GTCGCTTTCC	1.24
TCACCCTCTG	1.03
TCAATACCGC	1.14
CTAGGTGCAT	1.25
CACAGTCAGT	1.08
GGTAAACCTT	1.07
TCAGCCAGGA	1
TAAACCGTTT	0.992
AGTTTACTTC	1.01
TTTACGCTTC	1.17
CGCTGTAGTC	1.06
GCACGGGATA	1.05
GCCTTTTGGT	0.992
TGGTCGTACT	1.02
ACTTTGTGGA	0.978
TTAATTGTGA	0.955
TTCATTCAGT	0.973
TCGCTCCCTT	1.32
GTAGCCCGAG	1.02

Sequence	switch fluorescence ratio
GTATGTAAGT	0.993
ATAATCGCCA	1.06
TGCTTTTGGC	0.994
CCTCGATGTG	1.09
TGAGAAACCA	1.05
TCGAGGATGA	0.954
TTCAGGATCG	0.999
GGATACCGGG	0.987
CGGTCAGAGA	0.965
ACGTAAGTCG	1.02
GAAGTACATG	1.22
CATGCTGATA	0.993
GTTTTGGATT	1.01
GATTCCAGCC	1.06
AAAATTATGC	1.03
AATCAACACG	1.05
TATCCGGAGG	1.12
AGTCTCTGCT	1
GCGGATTGG	1.03
CGGTACTGTT	1.01
CTGCGCTGCG	1.05
CTTGGGACAA	0.987
TTTTACCTCG	1.03
CCAGTAATCA	1.04
GTCTCCGGTA	1.1
AAACATTGGG	1.06

Sequence	switch fluorescence ratio
CCTCGTTCAA	4.09
AGTGGTAGCC	0.994
TTGCGTGACA	0.993
GTTGGCGCGA	1.01
ATGTTAAAAT	0.973
TAAGCCAGGG	1.07
AATGCCTGGA	1.08
CCACCTAGGT	1.17
CAAAGATCGG	0.957
ATCTTAAGT	1
TTGCGTTCTA	0.993
CGTTGCGCGG	1.01
ATAGTCCTTT	0.968
GGTCTACAAC	1
TGTCAGAGAG	1.03
ACGTGGGCTG	1.07
CGTCGTACCT	1.07
ATCGTTAATG	0.975
CTGTCCTGCC	1.24
GAGGGAAGGA	1.01
CCCAGCAACG	1.56
TCAATGACTC	1.03
TAGATCTAGG	0.995
GGGAGCGTTA	0.977
TACGTTGGTC	1.02
TTATGTTCGG	0.935

Sequence	switch fluorescence ratio
AATAGGGAAC	1.04
CAGATTTGGT	1.03
TGCTGTAGCA	1.04
TTGTTCTAAA	0.971
TCTATTAACC	1.03
GTTTTTGAGC	1.03
TGTATGACCG	0.991
AGATGGCTGC	1
GCCTTCACTC	1.71
TATGATTTAC	1
TTGTATAAGT	1.09
TTGTTGACAC	1.06
GGAGACGACA	0.987
CTCAGCATCC	2.01
CGAATCACGC	1.06
TAGAAGAGCT	1
GTTGATGATG	0.995
ATGGCGTCTG	1.06
ATTCCTGCTC	1.08
ACACAGGACG	1.1
AAGGATCAGC	1
CACGGGCGGA	1.32
CTACGGGACT	1.32
GGAACTCGAA	0.959
CTGTATTCCA	1.01
GCGCTTATT	1.04

Sequence	switch fluorescence ratio
AGACATA	0.986
CATTTTCTCG	0.994
AATGATTAGC	1.02
TCTTTCATGG	0.981
GCCCGAATCT	1.08
TGTGCACGTT	0.965
AAGCGGGACC	1.02
AAAAGGAAGG	0.99
GGATCGACCA	0.984
CCCGGCGGTT	4.29
TTGAGGCCCC	0.988
GCCACGTTT	1.03
GTCCTGGGAC	1.01
TCGATCGTCT	1.08
GGTAATATGC	1.01
CCTGGGAACT	1.03
GTCCTGGGGA	1.33
TAAATACCAG	0.981
CAGCATGTAC	4.05
GTTTGGGTG	1.22
CGAAGAAGAC	1.27
GTGAGCAGTT	1.01
GTCACCGCCG	1.12
TCGGAGCCCC	4.7
CTTCGTAGTT	1.05
GTGTGTTGGA	1.06

Sequence	switch fluorescence ratio
ATGTGATTAT	1.02
CTGTCGTTCC	1.24
TATATAGGG	1.04
ATTTAATGAT	1.02
AGGAGTCTG	1.05
CACTCCAGCG	1.39
GGCTAGCAAT	1.56
TATGGACGGC	0.963
AAATTAAAGT	0.944
AGATTTGGGG	0.967
GTAGTGTCGG	1.02
TCGCTGTGGA	1.04
GGTTTTCTAC	0.985
ACGCGATCGA	1.04
CTTGCTGGGT	1.04
CCACCTTTAG	1.02
GCAGGTGGAT	1.12
GGATATATAG	0.978
ATAGACGA	1
